Laboratory results taken from publication PMC4336329 (PLoS ONE, 2015).
The whole screen tested about 310,000 compounds, of which about 2,200 (0.71%) showed an effect of 50% or more. Effects have a minus sign here. The list shows a part of the results.

Biological target: human ether-à-go-go-related gene (hERG) potassium channel (human, UniProt Q12809)
Assay: primary screen, population patch clamp on CHO cells stably expressing hERG

Chain of human ether-à-go-go-related gene (hERG) potassium channel (Q12809 whole entry, looked up): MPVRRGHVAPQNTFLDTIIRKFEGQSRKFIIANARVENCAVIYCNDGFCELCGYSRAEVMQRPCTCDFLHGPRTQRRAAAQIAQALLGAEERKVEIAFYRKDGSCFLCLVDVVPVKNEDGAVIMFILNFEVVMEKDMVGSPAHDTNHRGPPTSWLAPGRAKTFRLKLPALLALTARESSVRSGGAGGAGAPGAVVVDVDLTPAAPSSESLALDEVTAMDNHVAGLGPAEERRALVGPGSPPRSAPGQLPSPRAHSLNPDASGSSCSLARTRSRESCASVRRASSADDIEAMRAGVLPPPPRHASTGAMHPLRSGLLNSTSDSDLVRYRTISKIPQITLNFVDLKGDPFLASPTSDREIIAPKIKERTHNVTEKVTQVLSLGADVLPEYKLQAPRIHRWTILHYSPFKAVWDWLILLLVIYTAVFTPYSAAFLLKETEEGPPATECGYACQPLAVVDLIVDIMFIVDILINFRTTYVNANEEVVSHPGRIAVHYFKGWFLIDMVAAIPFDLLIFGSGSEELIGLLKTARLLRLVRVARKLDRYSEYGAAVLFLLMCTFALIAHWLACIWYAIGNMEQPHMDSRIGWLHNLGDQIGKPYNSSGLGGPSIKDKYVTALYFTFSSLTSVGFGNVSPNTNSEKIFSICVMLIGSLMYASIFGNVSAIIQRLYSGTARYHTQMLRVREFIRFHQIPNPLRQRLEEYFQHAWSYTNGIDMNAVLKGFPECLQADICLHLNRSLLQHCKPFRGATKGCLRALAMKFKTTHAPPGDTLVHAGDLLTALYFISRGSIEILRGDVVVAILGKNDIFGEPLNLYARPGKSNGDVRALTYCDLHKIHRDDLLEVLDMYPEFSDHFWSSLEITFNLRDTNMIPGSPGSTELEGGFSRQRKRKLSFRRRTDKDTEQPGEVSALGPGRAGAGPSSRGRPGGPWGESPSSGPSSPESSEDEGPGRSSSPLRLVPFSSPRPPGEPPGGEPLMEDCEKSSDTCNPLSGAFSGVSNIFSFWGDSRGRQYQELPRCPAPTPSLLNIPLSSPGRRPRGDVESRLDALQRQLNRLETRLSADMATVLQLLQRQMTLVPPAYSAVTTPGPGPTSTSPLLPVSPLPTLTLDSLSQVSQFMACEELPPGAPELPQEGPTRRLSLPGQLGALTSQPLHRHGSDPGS

Compound	hERG current change (%, negative = inhibition) at 1uM [%]
COc1ccc(N/N=C(\C#N)C(=N)N2CCOCC2)cc1	8.11
Cc1nnc(NC(=O)CSc2nc3c(c(=O)n2CCc2ccccc2)SC(C)C3)s1 (centres unmarked)	13.8
COc1cccc(C(=O)NCC2CCCN(C3CCCCC3)C2)c1OC (centres unmarked)	11.3
Cc1ccc(S(=O)(=O)Nc2ncnc3sccc23)cc1C	6.23
O=C1CCc2cc(S(=O)(=O)NCc3ccc(Cl)cc3)cc3c2N1CC3	-2.01
O=C(O)/C=C/C(=O)Nc1ccc(F)cc1F	12.5
CCOC(=O)N1CCN(C(=O)CS(=O)(=O)Cc2nc(-c3ccccc3F)oc2C)CC1	0.789
COc1ccc(-c2nc3ccc(C(=O)N4CCC5(CC4)OCCO5)cc3nc2-c2ccc(OC)cc2)cc1	6.29
COc1ccc(OC2C(=O)N(Cc3ccc(F)cc3)C2c2cc(OC)c(OC)c(OC)c2)cc1 (centres unmarked)	0.236
Cc1ncoc1C(=O)N1CCCC(C(=O)c2cccc(C(F)(F)F)c2)C1 (centres unmarked)	5.23
COc1ccc(S(=O)(=O)N2CCc3ccccc3C2)cc1C(=O)O	1.57
CCc1ccccc1N(CC(=O)N1CCN(c2ccccc2F)CC1)S(C)(=O)=O	12.8
FC(F)(F)c1cccc(Nc2nc(N3CCCC3)nc(N3CCCC3)n2)c1	27.2
O=C1N(c2ccccc2)c2ccccc2C1(Cc1ccncc1)Cc1ccncc1	5.83
CCN(c1ccccc1)S(=O)(=O)c1cccc(C(=O)NCC(c2cccs2)N(C)C)c1 (centres unmarked)	0.467
Cc1ccc(Nc2n[nH]c(C)c2[N+](=O)[O-])cc1	12.2
Cc1ccc[n+](CC(=O)Nc2ccc(N(C)C)cc2)c1.[Cl-]	14.5
O=C(CN1C(=O)NC2(CCCCC2)C1=O)Nc1cccc(Cl)c1Cl	5.22
Cc1cccc(C(=O)OC2CCOC2=O)c1O (centres unmarked)	13.2
COc1ccc(C)cc1S(=O)(=O)NCCc1ccccc1	-14
CSc1ccc(OC2CCCCC2NS(=O)(=O)c2ccc(Cl)cc2)cc1 (centres unmarked)	10.2
CN(C)CCCN(C(=O)c1ccco1)c1nc2c(F)cc(F)cc2s1.Cl	-60.2

Compound	hERG current change (%, negative = inhibition) at 1uM [%]
COc1ccc(/C=C/C(=O)NC(=S)NCCc2ccc(OC)c(OC)c2)cc1	13.1
Cc1cccc(NS(=O)(=O)c2ccc3c(c2)Cc2cc(S(=O)(=O)Nc4cccc(C)c4C)ccc2-3)c1C	3.6
COc1ccc(OC)c(NC(=O)C2CCN(c3nc(C)cc(C)n3)CC2)c1	-3.75
CC(C)NC(=O)COC(=O)c1ccccc1C(=O)c1ccccc1	10.9
CCSc1nc(-c2cccs2)nc2ccccc12	1.52
CC(C)Oc1ccc(CCNC(=O)C2CCC(=O)N(Cc3cccc(F)c3)C2)cc1 (centres unmarked)	-1.31
Cc1nn(C)c(C)c1CN(C)C(=O)c1nn2c(c1Br)NC(c1cccs1)CC2C(F)(F)F (centres unmarked)	5.33
COc1ccc(NC(=O)/C(=C\c2ccco2)NC(=O)c2ccco2)cc1	9.91
NC(=S)N/N=C/c1ccc(-c2ccc(SC(F)F)cc2)o1	14.7
CC(C)N(C(=O)CSc1nc2ccccc2n1Cc1ccccc1F)C(C)C	8.46
COc1ccc(OC)c(NC(=O)NC2CCCCCCC2)c1	9.24
COc1ccc(N2C(=O)C3CCCN3C2c2cccs2)cc1 (centres unmarked)	12.7
Nc1cc(=O)[nH]c(SCC(=O)NCC2CCCO2)n1 (centres unmarked)	8.23
Cc1cccc(C)c1OCc1cc(C(=O)N2CC3C[C@@H]4CC2C[C@H](C3)C4)no1	8.42
C[N+]1(C)C2CC[C@H]1CC(OC(=O)C(CO)c1ccccc1)C2.O=[N+]([O-])O (some centres unmarked)	4.7
Cc1cc(Cl)ccc1OCC(=O)OC(C)C(=O)NC(N)=O (centres unmarked)	4.91
CCCCCc1c(C)nc(N2CCN(Cc3ccc4c(c3)OCO4)CC2)[nH]c1=O	-1.95
CNCc1c(OCc2ccccc2)ccc2ccccc12.Cl	-0.938
CC(C)(C)C1CCc2sc(-c3nnc(CCl)o3)cc2C1 (centres unmarked)	16.8
O=C(Nc1cnccn1)c1cccnc1	4.49
Cc1cccc(C(=O)NNC(=O)c2ccc(Br)cc2)c1	5.03
COc1ccccc1N1CCN(C(=O)c2cc(=O)c3c(C)cc(C)cc3o2)CC1	21.3
